# Data published in the supplement of paper PMC5499739.
# The full ranking holds about 16,000 sequences; the median of “Z-score” is about -0.37, and the highest 2% start at about 3.2. Some of the results follow.
# Tested on: RBM10 RRM1-ZnF (GST-tagged construct)
# Test: RNAcompete 7-mer binding Z-score; higher = stronger binding preference
# Procedure, shortened: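 In 1 ml Hepes pH 7.8 buffer with KCl, NaCl, glycerol, DTT, BSA and glutathione Sepharose beads, GST-tagged RBM10 constructs (20 pmol) were incubated for 30 min at 4°C with 1.5 nmol of a designed pool of 241 399 RNAs up to 41 nt. Four 2-min washes at 4°C followed, and bound RNA was detected by microarray hybridisation. Heptamer motif enrichment was expressed as a one-sided Z-score across probes containing each motif.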
row,Sequence,RNAcompete 7-mer binding Z-score
1,CUCACAG,-0.285
2,ACAGGGA,3
3,CGCAGGA,0.761
4,CCGGCAU,-0.805
5,AGUGGUC,0.413
6,CCCGUAG,-0.441
7,AUUUAGG,0.677
8,AGGAAAA,1.71
9,CCAGAGG,0.449
10,CCCAGCG,-0.188
11,GUGCGUG,0.813
12,UGCUUCC,-0.724
13,UCAGUGG,0.946
14,GACAGAU,-0.155
15,ACCAGCG,-0.184
16,GGACGAU,0.673
17,AUUAACG,-0.373
18,UCCGAAC,-0.626
19,GUCUAGU,-0.279
20,AUACAGA,-0.119
21,CAAACAA,-0.34
22,GGUAGCU,0.797
23,UGCCAUC,-0.75
24,CAUCAGG,0.228

row,Sequence,RNAcompete 7-mer binding Z-score
1,GCCAUGC,-0.646
2,CCUUGUG,-0.707
3,GCCCUGA,-0.61
4,AUGGGGG,4.12
5,UACUGCA,-0.604
6,AGUCCCG,-0.308
7,AUUGAUC,-0.392
8,UCUCGUC,-0.701
9,AAGCAUA,-0.214
10,ACCAAGU,-0.402
11,GAGCAUG,0.358
12,ACAUAGA,-0.0479
13,AGCCCAU,-0.912
14,CACAUUA,-0.6
15,AACCGAU,-0.623
16,GAGAUCG,0.459
17,CAUAAAA,-0.49
18,CCAAAUA,-0.594
19,UAAUCAA,-0.448
20,GAAACAU,-0.249
21,CCUGUGC,-0.552
22,UCAUGGA,0.491
23,GUAGCGG,1.77
24,AGGGGGA,2.47

row,Sequence,RNAcompete 7-mer binding Z-score
1,AUAAUGU,-0.0317
2,CGAGGCA,0.605
3,CCGGACA,-0.513
4,CGCCCGU,-0.376
5,UCGGGGC,1.65
6,CCCAAAG,-0.61
7,AUCAAAA,-0.327
8,GUCGUAU,-0.00246
9,AAGGAAG,3.84
10,GGGGUAC,2.57
11,AAUCUUU,-0.763
12,GUAUCAC,-0.0512
13,GUUAGUU,0.03
14,AUGCGCG,-0.165
15,UCGUGAA,-0.217
16,UUCUUUC,-0.808
17,ACUUCAG,-0.539
18,UACGAUA,-0.279
19,UGCGGCG,0.729
20,AUGCUCU,-0.828
21,GUCAACG,-0.0155
22,UAGUGCG,0.478
23,AUUUUGC,-0.993
24,CGAAGGC,0.524

row,Sequence,RNAcompete 7-mer binding Z-score
1,CUACGUU,-0.542
2,CUAGAGC,-0.366
3,AUGGUUG,2.51
4,ACAAAUG,0.0788
5,GUUCCGA,-0.565
6,GAGGCGU,0.725
7,AGAGAUG,1.04
8,ACUGCAC,-0.464
9,GUCUCUC,-0.659
10,UCUUGAA,-0.785
11,AGAUGCC,-0.753
12,UGCCCUU,-0.789
13,AACCUGU,-0.665
14,CACUAGA,-0.194
15,AAUCGCA,-0.386
16,UUCAAGG,0.056
17,AAGGGUC,1.72
18,AAUUUAA,-0.467
19,UUGCCCA,-0.633
20,CGGAUCC,-0.301
21,GCGCUAA,-0.535
22,GCAGAGA,0.979
23,UUUCCAG,-0.737
24,UACAUCU,-0.72

row,Sequence,RNAcompete 7-mer binding Z-score
1,AGGUGCC,0.261
2,AAGAUUU,-0.626
3,CGUCCCC,-0.373
4,CAAUCUA,-0.626
5,GAUAUCA,-0.269
6,CACCCGU,-0.516
7,UUCACAC,-0.678
8,UGGACGU,1.36
9,ACAUCUU,-0.893
10,AACGUCC,-0.818
11,AGGGUUU,2.56
12,CGGCGCC,-0.272
13,GUUGUGG,1.99
14,CUCGUAU,-0.704
15,GUGAAAA,0.556
16,GAAUAUC,-0.418
17,CCUCAGG,-0.363
18,UUUCUCU,-0.652
19,GGAUAAG,2.69
20,UACGGCU,-0.308
21,GGUUCUA,-0.162
22,UGGCACC,0.0723
23,CUAGUAU,-0.37
24,UUCCCCA,-0.633

row,Sequence,RNAcompete 7-mer binding Z-score
1,GUUUCGU,-0.191
2,GCUGCCC,-0.24
3,GCUCGGU,-0.129
4,GCAUGCU,-0.613
5,UGUAGGA,1.7
6,UCGCCGA,-0.668
7,CUGCAAU,-0.724
8,AAUGCAA,-0.139
9,AUACAAA,-0.435
10,GGCAAUC,-0.171
11,CGGUAUU,0.179
12,ACCUGGC,-0.613
13,CAAAGAU,-0.347
14,AGUCCCC,-0.357
15,CGACACU,-0.587
16,UUAUGGU,0.537
17,UAAGCUA,-0.347
18,AAUUUGU,-0.571
19,GCUAACA,-0.399
20,UGAUGUG,0.829
21,CGCUUUC,-0.789
22,GUGCCGC,-0.0837
23,AGUUCGU,-0.422
24,AUGGACC,0.16

row,Sequence,RNAcompete 7-mer binding Z-score
1,UUGGUCU,-0.217
2,AUUUACU,-0.73
3,GCGAUCC,-0.857
4,GUUCCUG,-0.607
5,UCUUAAU,-0.678
6,CCUAUUG,-0.474
7,CAGUCUU,-0.925
8,UUUUGUC,-0.581
9,GGGUACA,2.7
10,AACAUAG,0.03
11,UACAACG,-0.0934
12,AACGGCA,0.42
13,GUAUCCC,-0.552
14,GAGUGAA,1.07
15,UUAGCCA,-0.694
16,AGCAGUG,0.543
17,CGUGGUU,1.01
18,GCCUAGU,-0.337
19,ACUCUUU,-0.844
20,UGUACUG,-0.275
21,UGGCUUG,0.14
22,UUUCUAC,-0.863
23,AAUACUU,-0.756
24,UCAUAUA,-0.487

row,Sequence,RNAcompete 7-mer binding Z-score
1,ACAUCCA,-0.72
2,AUGCGAU,0.0138
3,ACCGAAA,-0.733
4,AUGCUUC,-0.746
5,GCAUCCG,-0.412
6,AACACAU,-0.415
7,GCCGGGU,1.49
8,CAGAAGU,-0.0414
9,ACAUACU,-0.513
10,UCACCAU,-0.909
11,GUGCGUU,0.173
12,ACUCGCC,-0.74
13,CCAAAGC,-0.867
14,AGAGAAC,-0.139
15,GCUCAUG,-0.454
16,CACUGUU,-0.574
17,AUCUAAG,-0.451
18,CCCCAGU,-0.438
19,UUGAGAA,0.231
20,CGUAUCA,-0.629
21,UCUACGU,-0.662
22,CGUAUAU,-0.35
23,GGGAAUA,3.09
24,CUCGAAU,-0.62

row,Sequence,RNAcompete 7-mer binding Z-score
1,CGCGGAU,0.514
2,CUCUUGU,-0.811
3,UUGAGCU,-0.444
4,AAGCUUU,-0.727
5,GUAGUAG,0.868
6,AUAACGA,-0.61
7,AGGCGGC,0.15
8,CUUGCGU,-0.542
9,CCACUGC,-0.366
10,GGAAACU,0.404
11,AGUUUAG,0.0235
12,AAUCAAA,-0.425
13,UGACUAU,-0.435
14,GGCCGAG,0.462
15,CGCCUUG,-0.451
16,CAUGUAA,-0.308
17,GGGCCUC,0.03
18,GCUCCCA,-0.574
19,UGUAUUA,-0.428
20,CAUAAUA,-0.766
21,GUGUGCA,0.371
22,GAUACCU,-0.704
23,GAUGAGC,0.894
24,UCGCAUC,-0.707

row,Sequence,RNAcompete 7-mer binding Z-score
1,ACUUAUA,-0.685
2,CCGGAUA,-0.126
3,CACACAC,-0.555
4,UGGAAAG,2.84
5,GAGCCUG,-0.539
6,GCCGAUA,-0.467
7,GUUCAAC,-0.457
8,UGCAUCU,-0.802
9,GUCCCCG,-0.282
10,ACGUUAA,-0.376
11,UACCGCG,-0.246
12,CGCUAAG,-0.418
13,UAUACCU,-0.753
14,GCCCGGA,-0.331
15,GGUGCUA,1.43
16,GUUUACG,-0.386
17,AUAUGAU,-0.0512
18,GAAUAGU,0.137
